Laboratory results as given in publication PMC4336329 (PLoS ONE, 2015).
Among all 310,000 compounds or so, about 14,000 (4.5%) showed an effect of 50% or more. Effects have a minus sign here. Some of the results follow.

target: human ether-à-go-go-related gene (hERG) potassium channel (human, UniProt Q12809); assay: primary screen, population patch clamp on CHO cells stably expressing hERG
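Note: peak tail current of the secondary pulse compared with the same well before compound.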

Sequence of human ether-à-go-go-related gene (hERG) potassium channel (Q12809 whole entry, looked up): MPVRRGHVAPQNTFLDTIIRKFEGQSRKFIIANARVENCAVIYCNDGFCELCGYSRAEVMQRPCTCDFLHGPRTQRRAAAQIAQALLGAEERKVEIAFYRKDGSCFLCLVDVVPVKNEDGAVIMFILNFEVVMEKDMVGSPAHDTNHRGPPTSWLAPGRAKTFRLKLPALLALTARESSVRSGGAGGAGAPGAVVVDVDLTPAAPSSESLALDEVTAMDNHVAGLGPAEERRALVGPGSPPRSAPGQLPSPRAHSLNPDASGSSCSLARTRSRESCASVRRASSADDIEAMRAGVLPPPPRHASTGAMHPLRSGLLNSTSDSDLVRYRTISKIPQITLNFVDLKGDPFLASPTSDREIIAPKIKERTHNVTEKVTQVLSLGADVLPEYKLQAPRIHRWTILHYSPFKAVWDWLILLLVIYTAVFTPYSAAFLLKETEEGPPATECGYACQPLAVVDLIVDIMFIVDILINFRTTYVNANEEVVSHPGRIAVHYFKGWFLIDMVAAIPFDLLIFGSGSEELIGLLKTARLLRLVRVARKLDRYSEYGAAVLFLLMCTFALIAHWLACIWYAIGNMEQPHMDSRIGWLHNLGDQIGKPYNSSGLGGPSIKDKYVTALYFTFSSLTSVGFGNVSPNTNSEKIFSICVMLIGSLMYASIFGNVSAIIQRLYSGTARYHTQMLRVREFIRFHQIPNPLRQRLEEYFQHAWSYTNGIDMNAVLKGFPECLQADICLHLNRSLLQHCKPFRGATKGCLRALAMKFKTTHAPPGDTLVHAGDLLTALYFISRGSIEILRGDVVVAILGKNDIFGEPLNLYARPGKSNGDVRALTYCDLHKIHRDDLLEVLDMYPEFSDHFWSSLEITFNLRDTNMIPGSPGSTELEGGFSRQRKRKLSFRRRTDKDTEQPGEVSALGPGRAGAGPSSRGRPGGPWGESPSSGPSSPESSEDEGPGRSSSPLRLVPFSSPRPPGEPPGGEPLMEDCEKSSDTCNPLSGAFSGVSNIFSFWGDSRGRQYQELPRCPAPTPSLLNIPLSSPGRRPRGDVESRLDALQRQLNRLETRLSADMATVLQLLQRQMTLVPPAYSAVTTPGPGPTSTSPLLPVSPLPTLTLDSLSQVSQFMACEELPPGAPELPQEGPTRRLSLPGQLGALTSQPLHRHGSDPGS

| SMILES | hERG current change (%, negative = inhibition) at 10uM [%] |
| --- | --- |
| CCn1c(SCC(N)=O)nnc1C(C)C | 14.7 |
| Cc1ccccc1N(CC(=O)N/N=C/c1cc(Br)c(C)o1)S(C)(=O)=O | -0.797 |
| CC(=O)N1CCOc2ccc(S(=O)(=O)NCCc3ccc(Cl)cc3)cc21 | -12.3 |
| COc1ccc(-c2nc(SC(C)C(=O)Nc3ccc(NC(C)=O)cc3)n[nH]2)cc1 (stereo not shown) | 10.4 |
| CC1CCCC(C)N1C(=O)COC(=O)c1cc(S(=O)(=O)N2CCOCC2)ccc1Cl (stereo not shown) | -23.3 |
| CCOc1cc(C(=O)Nc2cc3c(cc2N2CCCC2)n(C)c(=O)n3C)cc(OCC)c1OCC | -1.12 |
| CC(C)(C)NC(=O)CCN(/N=C/c1ccccc1F)C1=NS(=O)(=O)c2ccccc21 | 15.7 |
| OCCC1CN(Cc2nc3ccccc3s2)CCN1C1CCCC1 (stereo not shown) | -48.9 |
| N=c1c2c(-c3ccccc3)c(-c3ccccc3)oc2ncn1CCCN1CCOCC1 | -79.2 |
| COc1ccccc1C/C(N)=N/OC(=O)COc1cc(C)cc(C)c1C | 0.985 |
| CC(C)(C)N(Cc1ccccc1)C(=O)CSc1ncn[nH]1 | 11.2 |
| Cc1cnc(CNC(=O)CC2C(=O)NCCN2Cc2ccccc2C(F)(F)F)cn1 (stereo not shown) | 16.8 |
| O=C(CSc1nc2ccccc2n1Cc1ccc(Cl)cc1)N/N=C/c1ccc(C(=O)O)cc1 | 17 |
| CC(=O)Nc1ccc(C(=O)Cn2nnc3ccccc3c2=O)cc1 | 6.68 |
| C=C(C)COc1ccc2oc(C)c(C(=O)OCCOC)c2c1 | 16 |
| Cc1cc(C(=O)COc2ncnc3sccc23)c(C)n1C1CC1 | 11.1 |
| COc1ccc(CCNCc2ccc(Br)cc2)cc1OC.O=C(O)C(=O)O | -62.9 |
| COc1ccccc1C(=O)N1CCN(c2nc3cc(C)c(C)cc3cc2C#N)CC1 | -2.28 |
| O=C(CSc1cccc[n+]1[O-])NCC1CCCCC1 | 62 |
| Cc1cccc(Nc2ncc3c(n2)CC(C)CC3=O)c1 (stereo not shown) | 2.03 |
| CN(C)Cc1c(O)ccc2c(=O)c(-c3ccc(Cl)cc3)coc12 | -9.92 |
| CCC(=O)N1CCN(c2cc(NCC3CCCO3)c(F)cc2[N+](=O)[O-])CC1 (stereo not shown) | -6.4 |

| SMILES | hERG current change (%, negative = inhibition) at 10uM [%] |
| --- | --- |
| O=c1ccc(-c2ccc(S(=O)(=O)Nc3cccc(Br)c3)o2)n[nH]1 | 14.8 |
| CCOC(=O)C1CCN(C(=O)CN2C(=O)CSc3ccc(S(=O)(=O)N4CCOCC4)cc32)CC1 | -22.6 |
| Cc1ccc(CNc2nc3ccccc3n2C)o1 | -12.4 |
| CCCCCCn1c(CN2CCN(C)CC2)nc2c1c(=O)n(C)c(=O)n2C | -80.9 |
| O=C(COc1ccc(/C=N/NS(=O)(=O)c2ccccc2)cc1)N1CCOCC1 | 7.05 |
| COC(=O)C[n+]1cccc2ccccc21.[Cl-] | 32.5 |
| CC1CCc2c(sc(NS(=O)(=O)c3ccccc3)c2C(=O)OC(C)C)C1 (stereo not shown) | 8.18 |
| CN(C)c1ccc(NC(=O)c2cccc([N+](=O)[O-])c2)c2ccccc12 | -4.86 |
| Cc1ccc(C2(c3noc(CN4CCC(C(=O)N5CCOCC5)CC4)n3)CCCC2)cc1 | -4.64 |
| O=C(CSc1ccc(-c2ccco2)nn1)N1CCCCCC1 | 4.12 |
| COc1ccc(NC(=O)Cn2cnc3c(cnn3-c3ccc(C)c(C)c3)c2=O)c(OC)c1 | -6.81 |
| NC(=O)C(=O)NN=C1CCC(c2ccccc2)CC1 (stereo not shown) | 20.3 |
| CCC(=O)N1CCc2cc(S(=O)(=O)CCC(=O)N3CCN(c4ccc(F)cc4)CC3)ccc21 | -2.82 |
| COC(=O)CCC(=O)NC1CC(C)(C)Cc2c1cnn2-c1ccc(F)cc1 (stereo not shown) | 4.42 |
| CC1CCCC(C)N1CCNC(=O)CCc1nnc2n(Cc3ccccc3)c(=O)c3ccccc3n12 (stereo not shown) | -42.6 |
| CCc1nc2ccc(C(=O)NCCc3ccco3)cc2nc1CC | -2.52 |
| Cc1ccc(P(=O)(CC(=O)O)c2ccc(C)cc2)cc1 | -8.65 |
| COc1ccc(-c2ccc(SCC(=O)NCC3CCCO3)nn2)cc1OC (stereo not shown) | 22.2 |
| C/C(=N\NC(=O)C(C)Oc1ccc([N+](=O)[O-])cc1)c1ccccn1 (stereo not shown) | -29.4 |
| Cc1ccc(C)c(OCc2cc(C(=O)N3CC[C@H](O)C3)no2)c1 | 19.8 |
| COc1ccc(NC(=O)[C@@H]2CCCN2C(=O)[C@@H]2Cc3ccccc3CN2C(=O)OC(C)(C)C)cc1 | 14.8 |
